Results are given in words; binding and its absence hold for the method and conditions named. Some binding calls cover weakened binding; strength is not graded here.
B1: full-length human caspase 7 (protein, UniProt P55210 1-303)
chain: MADDQGCIEEQGVEDSANEDSVDAKPDRSSFVPSLFSKKKKNVTMRSIKTTRDRVPTYQYNMNFEKLGKCIIINNKNFDKVTGMGVRNGTDKDAEALFKCFRSLGFDVIVYNDCSCAKMQDLLKKASEEDHTNAACFACILLSHGEENVIYGKDGVTPIKDLTAHFRGDRCKTLLEKPKLFFIQACRGTELDDGIQADSGPINDTDANPRYKIPVEADFLFAYSTVPGYYSWRSPGRGSWFVQALCSILEEHGKDLEIMQILTRVNDRVARHFESQSDDPHFHEKKQIPCVVSMLTKELYFSQ
B2: full-length human caspase 6 (protein, UniProt P55212 1-293)
chain: MSSASGLRRGHPAGGEENMTETDAFYKREMFDPAEKYKMDHRRRGIALIFNHERFFWHLTLPERRGTCADRDNLTRRFSDLGFEVKCFNDLKAEELLLKIHEVSTVSHADADCFVCVFLSHGEGNHIYAYDAKIEIQTLTGLFKGDKCHSLVGKPKIFIIQACRGNQHDVPVIPLDVVDNQTEKLDTNITEVDAASVYTLPAGADFLMCYSVAEGYYSHRETVNGSWYIQDLCEMLGKYGSSLEFTELLTLVNRKVSQRRVDFCKDPSAIGKKQVPCFASMLTKKLHFFPKSN
B3: full-length human caspase 2 (protein, UniProt P42575 1-452)
chain: MAAPSAGSWSTFQHKELMAADRGRRILGVCGMHPHHQETLKKNRVVLAKQLLLSELLEHLLEKDIITLEMRELIQAKVGSFSQNVELLNLLPKRGPQAFDAFCEALRETKQGHLEDMLLTTLSGLQHVLPPLSCDYDLSLPFPVCESCPLYKKLRLSTDTVEHSLDNKDGPVCLQVKPCTPEFYQTHFQLAYRLQSRPRGLALVLSNVHFTGEKELEFRSGGDVDHSTLVTLFKLLGYDVHVLCDQTAQEMQEKLQNFAQLPAHRVTDSCIVALLSHGVEGAIYGVDGKLLQLQEVFQLFDNANCPSLQNKPKMFFIQACRGDETDRGVDQQDGKNHAGSPGCEESDAGKEKLPKMRLPTRSDMICGYACLKGTAAMRNTKRGSWYIEALAQVFSERACDMHVADMLVKVNALIKDREGYAPGTEFHRCKEMSEYCSTLCRHLYLFPGHPPT
B4: full-length human caspase 10 (protein, UniProt Q92851 1-521)
chain: MKSQGQHWYSSSDKNCKVSFREKLLIIDSNLGVQDVENLKFLCIGLVPNKKLEKSSSASDVFEHLLAEDLLSEEDPFFLAELLYIIRQKKLLQHLNCTKEEVERLLPTRQRVSLFRNLLYELSEGIDSENLKDMIFLLKDSLPKTEMTSLSFLAFLEKQGKIDEDNLTCLEDLCKTVVPKLLRNIEKYKREKAIQIVTPPVDKEAESYQGEEELVSQTDVKTFLEALPQESWQNKHAGSNGNRATNGAPSLVSRGMQGASANTLNSETSTKRAAVYRMNRNHRGLCVIVNNHSFTSLKDRQGTHKDAEILSHVFQWLGFTVHIHNNVTKVEMEMVLQKQKCNPAHADGDCFVFCILTHGRFGAVYSSDEALIPIREIMSHFTALQCPRLAEKPKLFFIQACQGEEIQPSVSIEADALNPEQAPTSLQDSIPAEADFLLGLATVPGYVSFRHVEEGSWYIQSLCNHLKKLVPRMLKFLEKTMEIRGRKRTVWGAKQISATSLPTAISAQTPRPPMRRWSSVS
B5: full-length human CASP4 (protein, UniProt P49662 1-377)
chain: MAEGNHRKKPLKVLESLGKDFLTGVLDNLVEQNVLNWKEEEKKKYYDAKTEDKVRVMADSMQEKQRMAGQMLLQTFFNIDQISPNKKAHPNMEAGPPESGESTDALKLCPHEEFLRLCKERAEEIYPIKERNNRTRLALIICNTEFDHLPPRNGADFDITGMKELLEGLDYSVDVEENLTARDMESALRAFATRPEHKSSDSTFLVLMSHGILEGICGTVHDEKKPDVLLYDTIFQIFNNRNCLSLKDKPKVIIVQACRGANRGELWVRDSPASLEVASSQSSENLEEDAVYKTHVEKDFIAFCSSTPHNVSWRDSTMGSIFITQLITCFQKYSWCCHLEEVFRKVQQSFETPRAKAQMPTIERLSMTRYFYLFPGN

Chains of the proteins cited; added tags and fusions are not shown.
UniProt P29466: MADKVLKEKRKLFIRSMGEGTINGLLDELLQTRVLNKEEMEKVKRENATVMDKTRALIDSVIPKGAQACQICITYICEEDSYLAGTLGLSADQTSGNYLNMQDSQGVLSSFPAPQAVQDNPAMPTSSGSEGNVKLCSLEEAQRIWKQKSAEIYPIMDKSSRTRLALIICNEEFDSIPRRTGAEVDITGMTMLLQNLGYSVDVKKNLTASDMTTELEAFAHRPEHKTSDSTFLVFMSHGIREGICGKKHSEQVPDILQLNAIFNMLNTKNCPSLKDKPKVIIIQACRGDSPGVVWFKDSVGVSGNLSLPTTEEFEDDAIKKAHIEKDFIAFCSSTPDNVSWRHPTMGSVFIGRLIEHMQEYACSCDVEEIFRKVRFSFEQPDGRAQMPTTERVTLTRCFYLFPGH
UniProt P55211: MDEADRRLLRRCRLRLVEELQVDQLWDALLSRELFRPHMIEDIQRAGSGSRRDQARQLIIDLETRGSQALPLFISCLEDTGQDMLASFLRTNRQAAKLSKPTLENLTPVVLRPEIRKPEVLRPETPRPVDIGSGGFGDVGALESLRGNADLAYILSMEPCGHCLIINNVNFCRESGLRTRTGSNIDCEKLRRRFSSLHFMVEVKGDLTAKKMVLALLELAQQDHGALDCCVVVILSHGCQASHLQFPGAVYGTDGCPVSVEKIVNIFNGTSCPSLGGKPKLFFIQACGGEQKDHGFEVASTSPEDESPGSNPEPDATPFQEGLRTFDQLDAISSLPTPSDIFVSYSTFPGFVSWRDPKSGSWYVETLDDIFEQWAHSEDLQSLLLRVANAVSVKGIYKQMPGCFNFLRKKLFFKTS
UniProt Q14790: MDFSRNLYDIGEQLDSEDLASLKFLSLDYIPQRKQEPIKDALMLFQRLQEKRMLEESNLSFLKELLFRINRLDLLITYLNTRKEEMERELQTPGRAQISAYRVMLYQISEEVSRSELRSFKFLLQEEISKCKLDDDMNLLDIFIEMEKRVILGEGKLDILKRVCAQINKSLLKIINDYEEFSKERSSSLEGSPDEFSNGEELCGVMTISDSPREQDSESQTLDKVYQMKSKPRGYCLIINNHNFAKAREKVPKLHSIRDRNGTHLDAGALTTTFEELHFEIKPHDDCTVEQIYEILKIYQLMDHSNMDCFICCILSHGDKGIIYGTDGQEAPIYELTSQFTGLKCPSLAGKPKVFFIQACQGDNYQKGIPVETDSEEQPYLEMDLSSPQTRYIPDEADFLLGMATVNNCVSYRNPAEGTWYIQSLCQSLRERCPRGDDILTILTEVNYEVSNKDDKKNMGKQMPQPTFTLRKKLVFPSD

biological target: Shigella OspC3 (Shigella); assay: two-hybrid; yeast MaV103 and MaV203, 96-well format; GAL4BD-OspC effector and GAL4AD-caspase; selection on medium lacking leucine, tryptophan and histidine with 40 mM 3-amino-1,2,4-triazole; growth scored after 7 days at 30°C

| Molecule | binding |
| --- | --- |
| full-length human caspase 1 (from UniProt P29466 1-404) | no binding |
| full-length human caspase 9 (from UniProt P55211 1-416) | no binding |
| full-length human caspase 8 (from UniProt Q14790 1-479) | no binding |
| B1 | no binding |
| B2 | no binding |
| B3 | no binding |
| B4 | no binding |
| B5 | binds |

Reference: paper PMC12977621
